# Laboratory results: publication PMC9911399, “Two distinct binding modes provide the RNA-binding protein RbFox with extraordinary sequence specificity”
# Where a chain is given by its changes, count along the chain named. This is one part of the list.
# B1: UUGAGGU (DNA:RNA)
# RNA: GGGAGACCGGAAUUCAGAUUGUCCUUGAGGUUUAAAUCCCGUCGUAGCCACCA
# DNA 1: CAATCTGAATTCCGGTCTCCC
# DNA 2: TGGTGGCTACGACGGGATT
# B2: GGGAGAG (DNA:RNA)
# RNA: B1 RNA with U25G, U26G, G30A, U31G
# DNA 1: CAATCTGAATTCCGGTCTCCC
# DNA 2: TGGTGGCTACGACGGGATT
# B3: UCGAUAU (DNA:RNA)
# RNA: B1 RNA with U26C, G29U, G30A
# DNA 1: CAATCTGAATTCCGGTCTCCC
# DNA 2: TGGTGGCTACGACGGGATT
# B4: ACUAUCG (DNA:RNA)
# RNA: B1 RNA with U25A, U26C, G27U, G29U, G30C, U31G
# DNA 1: CAATCTGAATTCCGGTCTCCC
# DNA 2: TGGTGGCTACGACGGGATT
# B5: GUUCCCA (DNA:RNA)
# RNA: B1 RNA with U25G, G27U, A28C, G29C, G30C, U31A
# DNA 1: CAATCTGAATTCCGGTCTCCC
# DNA 2: TGGTGGCTACGACGGGATT
# B6: GAGCAUG (DNA:RNA)
# RNA: B1 RNA with U25G, U26A, A28C, G29A, G30U, U31G
# DNA 1: CAATCTGAATTCCGGTCTCCC
# DNA 2: TGGTGGCTACGACGGGATT
# B7: UCCAAAC (DNA:RNA)
# RNA: B1 RNA with U26C, G27C, G29A, G30A, U31C
# DNA 1: CAATCTGAATTCCGGTCTCCC
# DNA 2: TGGTGGCTACGACGGGATT
# B8: UUCGGCA (DNA:RNA)
# RNA: B1 RNA with G27C, A28G, G30C, U31A
# DNA 1: CAATCTGAATTCCGGTCTCCC
# DNA 2: TGGTGGCTACGACGGGATT
# B9: GCAACGA (DNA:RNA)
# RNA: B1 RNA with U25G, U26C, G27A, G29C, U31A
# DNA 1: CAATCTGAATTCCGGTCTCCC
# DNA 2: TGGTGGCTACGACGGGATT
# B10: CAUGGAU (DNA:RNA)
# RNA: B1 RNA with U25C, U26A, G27U, A28G, G30A
# DNA 1: CAATCTGAATTCCGGTCTCCC
# DNA 2: TGGTGGCTACGACGGGATT
# B11: CCGCUCA (DNA:RNA)
# RNA: B1 RNA with U25C, U26C, A28C, G29U, G30C, U31A
# DNA 1: CAATCTGAATTCCGGTCTCCC
# DNA 2: TGGTGGCTACGACGGGATT
# B12: CGCGACU (DNA:RNA)
# RNA: B1 RNA with U25C, U26G, G27C, A28G, G29A, G30C
# DNA 1: CAATCTGAATTCCGGTCTCCC
# DNA 2: TGGTGGCTACGACGGGATT
# B13: UCAACCC (DNA:RNA)
# RNA: B1 RNA with U26C, G27A, G29C, G30C, U31C
# DNA 1: CAATCTGAATTCCGGTCTCCC
# DNA 2: TGGTGGCTACGACGGGATT
# B14: CUUCGCA (DNA:RNA)
# RNA: B1 RNA with U25C, G27U, A28C, G30C, U31A
# DNA 1: CAATCTGAATTCCGGTCTCCC
# DNA 2: TGGTGGCTACGACGGGATT
# B15: GCGAAGC (DNA:RNA)
# RNA: B1 RNA with U25G, U26C, G29A, U31C
# DNA 1: CAATCTGAATTCCGGTCTCCC
# DNA 2: TGGTGGCTACGACGGGATT
# B16: CAGGUCU (DNA:RNA)
# RNA: B1 RNA with U25C, U26A, A28G, G29U, G30C
# DNA 1: CAATCTGAATTCCGGTCTCCC
# DNA 2: TGGTGGCTACGACGGGATT
# B17: GUACGGA (DNA:RNA)
# RNA: B1 RNA with U25G, G27A, A28C, U31A
# DNA 1: CAATCTGAATTCCGGTCTCCC
# DNA 2: TGGTGGCTACGACGGGATT
# B18: AAGUCUU (DNA:RNA)
# RNA: B1 RNA with U25A, U26A, A28U, G29C, G30U
# DNA 1: CAATCTGAATTCCGGTCTCCC
# DNA 2: TGGTGGCTACGACGGGATT
# B19: GACGUCA (DNA:RNA)
# RNA: GGGAGACCGGAAUUCAGAUUGUCCGACGUCAUUAAAUCCCGUCGUAGCCACCA
# DNA 1: CAATCTGAATTCCGGTCTCCC
# DNA 2: TGGTGGCTACGACGGGATT
# B20: GUAUGAA (DNA:RNA)
# RNA: B19 RNA with A26U, C27A, G28U, U29G, C30A
# DNA 1: CAATCTGAATTCCGGTCTCCC
# DNA 2: TGGTGGCTACGACGGGATT
# B21: CAAGGUA (DNA:RNA)
# RNA: B19 RNA with G25C, C27A, U29G, C30U
# DNA 1: CAATCTGAATTCCGGTCTCCC
# DNA 2: TGGTGGCTACGACGGGATT
# B22: CAUUACU (DNA:RNA)
# RNA: B19 RNA with G25C, C27U, G28U, U29A, A31U
# DNA 1: CAATCTGAATTCCGGTCTCCC
# DNA 2: TGGTGGCTACGACGGGATT
# B23: GGUCUGU (DNA:RNA)
# RNA: B19 RNA with A26G, C27U, G28C, C30G, A31U
# DNA 1: CAATCTGAATTCCGGTCTCCC
# DNA 2: TGGTGGCTACGACGGGATT
# B24: GGCGCGU (DNA:RNA)
# RNA: B19 RNA with A26G, U29C, C30G, A31U
# DNA 1: CAATCTGAATTCCGGTCTCCC
# DNA 2: TGGTGGCTACGACGGGATT
# B25: CGGGAUU (DNA:RNA)
# RNA: B1 RNA with U25C, U26G, A28G, G29A, G30U
# DNA 1: CAATCTGAATTCCGGTCTCCC
# DNA 2: TGGTGGCTACGACGGGATT
# B26: AGAUGUU (DNA:RNA)
# RNA: B1 RNA with U25A, U26G, G27A, A28U, G30U
# DNA 1: CAATCTGAATTCCGGTCTCCC
# DNA 2: TGGTGGCTACGACGGGATT
# B27: GCCACUG (DNA:RNA)
# RNA: B19 RNA with A26C, G28A, U29C, C30U, A31G
# DNA 1: CAATCTGAATTCCGGTCTCCC
# DNA 2: TGGTGGCTACGACGGGATT
# B28: CUGUUAC (DNA:RNA)
# RNA: B1 RNA with U25C, A28U, G29U, G30A, U31C
# DNA 1: CAATCTGAATTCCGGTCTCCC
# DNA 2: TGGTGGCTACGACGGGATT
# B29: ACAAAUA (DNA:RNA)
# RNA: B19 RNA with G25A, A26C, C27A, G28A, U29A, C30U
# DNA 1: CAATCTGAATTCCGGTCTCCC
# DNA 2: TGGTGGCTACGACGGGATT
# B30: AGCCGUC (DNA:RNA)
# RNA: B19 RNA with G25A, A26G, G28C, U29G, C30U, A31C
# DNA 1: CAATCTGAATTCCGGTCTCCC
# DNA 2: TGGTGGCTACGACGGGATT
# B31: GUAGAAG (DNA:RNA)
# RNA: B19 RNA with A26U, C27A, U29A, C30A, A31G
# DNA 1: CAATCTGAATTCCGGTCTCCC
# DNA 2: TGGTGGCTACGACGGGATT
# Biological target: T1, RBFOX1 RRM RbFoxmut (Fox-RRM*) (Homo sapiens, UniProt Q9NWB1 109-208, R118D;E147R;N151S;E152T)
# T1 sequence: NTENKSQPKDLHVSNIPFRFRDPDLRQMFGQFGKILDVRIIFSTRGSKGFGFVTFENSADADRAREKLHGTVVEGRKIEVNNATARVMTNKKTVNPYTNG
# Assay: EMSA; HiTS-Eq, 1 nM pool, 10 min; buffer printed only for the single-RNA assays: 10 mM Tris pH 7.5, 150 mM NaCl, 3.4 mM EDTA, 0.001% NP-40, 30 C
# Conditions: tags: His6 N-terminal (pET28a); label: 5' 32P
# Procedure, shortened: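 Purified wild-type or mutant RbFox RRM at increasing concentrations was equilibrated with 1 nM of 5′-radiolabelled RNA carrying 7 randomized nucleotides for 10 min in 50 µL. Unbound RNA was separated by 8% native PAGE and sequenced. Relative association constants came from read-count changes of each RNA species compared with the control reaction, normalised to the cognate motif.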
row,Binder,binding signal
1,B1,0.129 KA relative to UGCAUGU
2,B2,0.115 KA relative to UGCAUGU
3,B3,0.114 KA relative to UGCAUGU
4,B4,0.107 KA relative to UGCAUGU
5,B5,0.0799 KA relative to UGCAUGU
6,B6,1.12 KA relative to UGCAUGU
7,B7,0.0811 KA relative to UGCAUGU
8,B8,0.0951 KA relative to UGCAUGU
9,B9,0.0556 KA relative to UGCAUGU
10,B10,0.0754 KA relative to UGCAUGU
11,B11,0.047 KA relative to UGCAUGU
12,B12,0.062 KA relative to UGCAUGU
13,B13,0.0527 KA relative to UGCAUGU
14,B14,0.159 KA relative to UGCAUGU
15,B15,0.0658 KA relative to UGCAUGU
16,B16,0.0783 KA relative to UGCAUGU

row,Binder,binding signal
1,B17,0.0707 KA relative to UGCAUGU
2,B18,0.058 KA relative to UGCAUGU
3,B19,0.0995 KA relative to UGCAUGU
4,B20,0.349 KA relative to UGCAUGU
5,B21,0.124 KA relative to UGCAUGU
6,B22,0.139 KA relative to UGCAUGU
7,B23,0.215 KA relative to UGCAUGU
8,B24,0.12 KA relative to UGCAUGU
9,B25,0.0693 KA relative to UGCAUGU
10,B26,0.155 KA relative to UGCAUGU
11,B27,0.101 KA relative to UGCAUGU
12,B28,0.123 KA relative to UGCAUGU
13,B29,0.124 KA relative to UGCAUGU
14,B30,0.0938 KA relative to UGCAUGU
15,B31,0.123 KA relative to UGCAUGU
